# Results reported in PubChem BioAssay AID1645882 (National Center for Advancing Translational Sciences (NCATS), 2021).
# Where “and” joins values, the source holds several entries; their conditions need not be identical. Equal values may be shown once. The campaign covered roughly 16,000 compounds. About 120 (0.75%) were called active. Not shown: some 4% with an inconclusive outcome. The call rests on the fitted dose curve; in most records, active means well fitted inhibition curve with a large enough effect; inconclusive means small, poorly fitted or top-dose-only effect; inactive means no such curve, though single readings can be large or run the other way. This is one part of the list. Where a structure was tested more than once in an assay, its records may differ in their call.
# Target: Rap guanine nucleotide exchange factor 3 (Homo sapiens) (UniProt O95398)
# UniProt O95398, sequence (O95398 whole entry, looked up): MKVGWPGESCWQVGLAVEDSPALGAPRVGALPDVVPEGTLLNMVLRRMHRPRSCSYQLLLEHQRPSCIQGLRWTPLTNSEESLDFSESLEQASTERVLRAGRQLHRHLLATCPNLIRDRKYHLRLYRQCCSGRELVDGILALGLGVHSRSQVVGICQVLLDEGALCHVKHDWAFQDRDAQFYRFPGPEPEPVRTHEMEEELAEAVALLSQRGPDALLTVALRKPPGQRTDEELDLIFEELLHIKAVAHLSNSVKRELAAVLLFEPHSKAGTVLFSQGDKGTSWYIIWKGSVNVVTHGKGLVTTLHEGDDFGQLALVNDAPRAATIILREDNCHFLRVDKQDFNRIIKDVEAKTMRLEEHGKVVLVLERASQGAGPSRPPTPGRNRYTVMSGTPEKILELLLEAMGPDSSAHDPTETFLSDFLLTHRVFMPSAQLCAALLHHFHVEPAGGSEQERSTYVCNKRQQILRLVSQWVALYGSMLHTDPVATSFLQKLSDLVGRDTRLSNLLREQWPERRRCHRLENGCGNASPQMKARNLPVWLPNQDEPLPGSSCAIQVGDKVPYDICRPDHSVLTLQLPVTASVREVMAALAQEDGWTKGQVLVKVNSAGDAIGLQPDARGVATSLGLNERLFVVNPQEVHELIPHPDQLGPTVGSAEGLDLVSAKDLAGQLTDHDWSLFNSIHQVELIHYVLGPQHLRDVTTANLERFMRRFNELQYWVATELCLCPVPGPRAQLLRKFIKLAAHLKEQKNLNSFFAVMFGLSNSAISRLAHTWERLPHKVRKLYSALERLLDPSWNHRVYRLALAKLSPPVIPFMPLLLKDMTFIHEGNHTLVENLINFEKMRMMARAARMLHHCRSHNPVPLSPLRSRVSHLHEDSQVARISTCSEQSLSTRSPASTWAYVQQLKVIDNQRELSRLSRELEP
# Assay: Validation qHTS for antagonist of cAMP-regulated guanine nucleotide exchange factor 3 (EPAC1); further: nearly all actives have a fitted effect of over 75% in size;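 on activity change, negative = inhibition: plate controls were DMSO for no effect and ATA control for full effect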
# Settings: EPAC1 Rap1B-BODIPY-GDP exchange, fluorescence; series mostly up to 150 µM; activity change, negative = inhibition: at the top concentration
# In short: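 EPAC1 (100 nM) mixed with 250 nM RAP1B-BODIPY-GDP and 50 uM GDP; compounds in concentration series, 5 min at room temperature. Fluorescence (ex 480/em 540 nm) read every 5 min for 30 min; normalized to ATA control and DMSO.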
# Potency means the concentration at half of the fitted maximal effect.
Structure (SMILES),"activity change, negative = inhibition",Potency
O=C1CCN(Cc2ccccc2)CCN1[C@H](CSc1ccccc1)Cc1ccccc1,inactive: 2.4%,
COCC(=O)N1CCC2(CCCN(c3ccc(-c4ccccc4)cc3)C2)CC1,inactive: -6.43%,
COc1ccc(-c2nc3cnc(N(C)C)nc3n(C)c2=O)cc1,inactive: 17%,
CCn1c(-c2ccccc2F)nc2cc(C(=O)N3CCCC(CO)C3)cc(NC(C)=O)c21 (centres undefined),inactive: 9.2%,
COc1cc(-c2cc(C)c3cccc(OC)c3n2)cc2c1OCCN(C(=O)Cn1nc(C)cc1C)C2,inactive: -11%,
Oc1c(I)cc(I)c2cccnc12,inactive: 24.1%,
CC1CCC(=O)N(CCSc2ccccc2)CC1 (centres undefined),inactive: -5.14%,
CCC(=O)O,inactive: 18.8%,
C=NCc1cc2c(OC[C@@H](O)CNC(C)(C)C)cccc2[nH]1,inactive: 12.1%,
CCN(CC)CCNC(=O)c1cc(S(C)(=O)=O)ccc1OC,inactive,
CN(C)C(=O)c1ccc(-c2nc(NCc3cccnc3)c3ccccc3n2)cc1,inactive: 0.843%,
COc1ccc(C(=O)N2CCC[C@@]3(CCN(Cc4ccccc4OC)C3)C2)cc1,inactive: 4.5%,
O=C(CCCN1CC=C(n2c(=O)[nH]c3ccccc32)CC1)c1ccc(F)cc1,inactive,
O=c1cnc2cnc(Nc3ccccc3)nc2n1C1CC1,inactive: 4.84%,
CC(=O)NCCNc1nc(-c2cccc(NS(C)(=O)=O)c2)nc2ccccc12,inactive: 11.1%,
C=CC(C1=CC(=O)C=CC1=O)c1ccc(O)cc1 (centres undefined),inactive: -4.59%,
Cc1c(C(=O)NCC2(N3CCCCC3)CCCC2)cnn1-c1nccc(-c2ccccc2F)n1,inactive: 5.61%,
CCCCCC(C)N (centres undefined),inactive: 16.8%,
CC(C)CN1CC2(CCN(C(=O)c3csnn3)CC2)C1,inactive: 3.84%,
COc1ccc2cc(CCC(C)=O)ccc2c1,inactive,
O=C(O)CCC(=O)OC[C@@H](NC(=O)C(Cl)Cl)[C@H](O)c1ccc([N+](=O)[O-])cc1,inactive: -1.66%,
C=C[C@H](N)CCC(=O)O,inactive: 4.32%,

Structure (SMILES),"activity change, negative = inhibition",Potency
Cc1cccc(/C=C/c2ccccc2)n1,inactive,
Cc1c(C(=O)N2CCCC2)sc2ncnc(NCCN(C)C)c12,inactive: 10.3%,
CCn1cc(C(=O)O)c(=O)c2ccc(C)nc21,inactive,
C=C(NC(=O)C(=C)NC(=O)c1csc(C2=N[C@@H]3c4csc(n4)[C@H]4NC(=O)c5csc(n5)[C@H]([C@](C)(O)[C@@H](C)O)NC(=O)[C@H]5CSC(=N5)C(=CC)NC(=O)C([C@@H](C)O)NC(=O)c5csc(n5)[C@]3(CC2)NC(=O)[C@H](C)NC(=O)C(=C)NC(=O)[C@H](C)NC(=O)C([C@@H](C)CC)NC2C=Cc3c([C@H](C)O)cc(nc3C2O)C(=O)O[C@@H]4C)n1)C(N)=O (some centres undefined),inactive: 8.03% [at 75.8 µM],
Cc1cc(C)cc(C(=O)N(C)[C@H](Cc2ccc(-c3ccccc3)cc2)C(=O)N[C@@H](Cc2c[nH]c3ccccc23)C(=O)O)c1,,active: 112 µM
CC(=O)Nc1ccc(C(=O)N2CCCC(n3cc(C(=O)NCC(C)C)nn3)C2)cc1 (centres undefined),inactive: 2.69%,
COC(=O)[C@]1(C)CCC[C@]2(C)c3ccc(C(C)C)cc3C(=O)CC12 (some centres undefined),inactive: 5.81%,
O=c1[nH]c2ccccc2c2ccccc12,inactive,
C#CCN(C)Cc1ccccc1,inactive,
CC(=O)OC1C(=O)[C@@]2(C)C(O)CC3OC[C@]3(OC(C)=O)C2C(OC(=O)c2ccccc2)[C@]2(O)CC(OC(=O)C(O)C(NC(=O)c3ccccc3)c3ccccc3)C(C)=C1C2(C)C (some centres undefined),inactive: 1.21%,
COc1c2ccccc2nc2occc12,inactive: 7.29%,
CC1OCC23CC[C@@]4(C)CCC(C)(C)C[C@H]4[C@]2(C)CCC12C3CC[C@@]1(C)C2C(=O)CC(=O)[C@@H]1C (some centres undefined),inactive: 3.91%,
O=c1c(O)c(-c2cc(O)c(O)c(O)c2)oc2cc(O)cc(O)c12,,active: 35.5 µM and active: 39.8 µM and inactive
CC(C)c1ccc(C(=O)C[N+]2(C)CCOCC2)cc1,inactive: 25.1%,
COc1ccc(-n2c(=O)c(CCc3ccccc3)nc3cnc(N4CCOCC4)nc32)cc1,inactive: 2.16%,
CCNc1ncc2nc(-c3ccc(Cl)cc3)c(=O)n(CCC#N)c2n1,inactive: 11.9%,
CN1CCN(c2ncc3nc(CCc4ccccc4)c(=O)n(C)c3n2)CC1,inactive: -12.2%,
COC(=O)c1cc(CNC(=O)c2ccccc2)cc(NC(=O)c2ccccc2OC)c1,inactive: 6%,
O=C(O)c1cc2ccccc2[nH]1,inactive: 7.24%,
O=c1c(-c2ccccc2)nc2cnc(N3CCOCC3)nc2n1C1CC1,inactive: -5.26%,
CN(Cc1ccco1)c1cc(-c2cccc(C#N)c2)ncn1,inactive: 0.164%,
O=c1cc(-c2ccccc2)oc2cc(O)c(O)cc12,inactive: -11.4%,

Structure (SMILES),"activity change, negative = inhibition",Potency
CCN(CC)CCOc1ccc(Cc2ccccc2)cc1,inactive,
CCCCCCCCCCCCCCCC(=O)OCCC1CCN(CCCN2c3ccccc3Sc3ccc(S(=O)(=O)N(C)C)cc32)CC1,inactive: 16.5%,
N#CCCn1c(=O)c(-c2ccccc2)nc2cnc(N3CCNCC3)nc21,inactive: 7.97%,
Cc1ccc(S(=O)(=O)NC(=O)NN2CC3CCCC3C2)cc1 (centres undefined),inactive,
CCC(C)C(C(=O)OCC[N+](C)(CC)CC)c1ccccc1 (centres undefined),inactive: 27.5%,
CC(C)CN1CCCC2(CCN(C(=O)c3cccc(F)c3)CC2)C1,inactive: 8.67%,
Cc1cc(C(=O)NCC2CCC3(CCN(Cc4ccccc4C)CC3)O2)n(C)n1 (centres undefined),inactive: 9.45%,
OCC1OC(n2cnc3c(Cl)ncnc32)C(O)C1O (centres undefined),inactive: 14.2%,
CC(C)C(N)C(=O)O (centres undefined),inactive: -18.2%,
O=C1Nc2ccccc2C(=O)N2CCC[C@@H]12,inactive: 25.2%,
COc1cc(NS(C)(=O)=O)ccc1Cc1c2ccccc2nc2ccccc12,inactive: 11.4%,
COc1ccc(-c2cc(=O)c3c(O)cc(O)cc3o2)cc1,inactive,
Cc1cnc(C)c(-c2ccc3c(c2)CC(CNC(=O)Cc2c(C)[nH]c4ccccc24)O3)n1 (centres undefined),inactive: 3.83%,
CC(=O)N[C@@H](CC(=O)N[C@@H](CCC(=O)O)C(=O)O)C(=O)O,inactive: -1.35%,
c1ccc(C(NCCNC(c2ccccc2)c2ccccc2)c2ccccc2)cc1,inactive: -11.5% [at 75.8 µM],
O=S(=O)(c1ccccc1)N1CCC2(CCCN(C(c3ccccc3)c3ccccc3)C2)CC1,inactive: 4.72%,
Cc1cnc(CNc2ncncc2-c2ccccc2C#N)cn1,inactive: 20%,
CC(=O)N[C@@H](C=O)[C@H](O)[C@H](O)[C@@H](O)CO,inactive,
CC(=O)Oc1ccc2c(c1C(C)C)CCC1C(C)(C)CCC[C@@]21C (some centres undefined),inactive: -9.52%,
CCCC[C@@H](C=O)NC(=O)[C@H](CC(C)C)NC(=O)OCc1ccccc1,inactive: -45.9% [at 201 µM],
